Results: article PMC4336329 (PLoS ONE, 2015)
Out of some 310,000 compounds screened, about 2,200 (0.71%) showed an effect of 50% or more. The effect is printed as a negative number. Some of the results follow.

These compounds were tested against human ether-à-go-go-related gene (hERG) potassium channel (human, UniProt Q12809) (assay: primary screen, population patch clamp on CHO cells stably expressing hERG).
human ether-à-go-go-related gene (hERG) potassium channel, sequence (Q12809 whole entry, looked up): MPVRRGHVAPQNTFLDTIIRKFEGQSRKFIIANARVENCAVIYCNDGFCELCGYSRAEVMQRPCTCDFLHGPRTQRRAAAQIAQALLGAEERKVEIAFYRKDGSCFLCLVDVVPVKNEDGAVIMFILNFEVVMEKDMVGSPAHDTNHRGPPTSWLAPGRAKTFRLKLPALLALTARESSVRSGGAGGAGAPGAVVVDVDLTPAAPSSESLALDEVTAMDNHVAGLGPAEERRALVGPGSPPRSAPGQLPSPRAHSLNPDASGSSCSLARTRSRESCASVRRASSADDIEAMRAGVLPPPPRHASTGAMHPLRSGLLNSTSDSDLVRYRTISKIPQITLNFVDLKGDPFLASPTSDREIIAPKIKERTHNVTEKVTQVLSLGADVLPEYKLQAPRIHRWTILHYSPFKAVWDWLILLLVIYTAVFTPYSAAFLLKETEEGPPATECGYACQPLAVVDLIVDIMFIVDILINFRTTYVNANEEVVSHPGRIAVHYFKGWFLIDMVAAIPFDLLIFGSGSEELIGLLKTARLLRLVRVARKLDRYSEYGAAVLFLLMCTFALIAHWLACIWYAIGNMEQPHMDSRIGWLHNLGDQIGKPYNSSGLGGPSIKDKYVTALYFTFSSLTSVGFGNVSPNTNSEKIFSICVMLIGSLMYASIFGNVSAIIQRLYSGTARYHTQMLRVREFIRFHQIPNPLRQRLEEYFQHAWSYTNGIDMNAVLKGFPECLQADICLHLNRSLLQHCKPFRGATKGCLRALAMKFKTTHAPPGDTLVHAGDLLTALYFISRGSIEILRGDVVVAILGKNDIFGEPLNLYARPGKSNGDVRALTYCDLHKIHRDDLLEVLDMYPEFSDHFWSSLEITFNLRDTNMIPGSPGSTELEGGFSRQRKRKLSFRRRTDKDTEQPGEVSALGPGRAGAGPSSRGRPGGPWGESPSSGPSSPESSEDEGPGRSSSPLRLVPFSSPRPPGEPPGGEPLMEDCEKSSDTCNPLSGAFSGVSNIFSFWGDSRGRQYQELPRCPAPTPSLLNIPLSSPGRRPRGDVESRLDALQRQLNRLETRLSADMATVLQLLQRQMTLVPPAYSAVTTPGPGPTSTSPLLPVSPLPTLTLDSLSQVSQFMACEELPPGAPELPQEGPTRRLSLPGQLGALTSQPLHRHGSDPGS

Row | Compound | hERG current change (%, negative = inhibition) at 1uM [%]
1 | COc1ccc(CCN2C(=S)N(c3ccccc3)C(=O)C2CC(=O)O)cc1OC (stereo not drawn) | 13.4
2 | CCOC(=O)c1sc(NC(=O)CNCc2ccccn2)c(C(=O)OCC)c1C | 11.1
3 | O=C(Cc1ccccc1[N+](=O)[O-])N1CCN(Cc2ccc3c(c2)OCO3)CC1 | 9.23
4 | COc1ccc(OC)c(NC(=O)C(C)Oc2ccc(Br)cc2)c1 (stereo not drawn) | 13.8
5 | CCOc1ccccc1NS(=O)(=O)c1cc2c3c(c1)C(C)C(=O)N3CCC2 (stereo not drawn) | 18.4
6 | CNC(=O)CN1C(=O)NC2(CCc3ccccc32)C1=O (stereo not drawn) | 16.1
7 | O=C(CN1C(=O)CSc2ccc(S(=O)(=O)N3CCOCC3)cc21)NCc1cccnc1 | 3.64
8 | CCOC(=O)c1ccc(NC(=O)CSCC(=O)OCC(=O)c2ccccc2)cc1 | 2.26
9 | CN(C)S(=O)(=O)c1cccc(NC(=O)Cc2ccsc2)c1 | 9.34
10 | Fc1ccc(N2CCN(Cc3ccc4c(c3)OCO4)CC2)cc1 | -1.69
11 | Cn1c(SCC(=O)c2ccccc2)nnc1-c1cccnc1 | 5.4
12 | O=C(CNC(=O)C1CCCCC1)Nc1ccccc1Cl | 5.14
13 | COC(=O)c1cc(C(=O)OC)n(Cc2ccc(F)cc2)n1 | 0.566
14 | Cc1sc(/N=C/c2ccccc2O)c(C#N)c1C | 18.5
15 | Clc1cccc(Cl)c1CN1CCN(c2ccccc2)CC1 | 15.9
16 | COc1ccc(N(CC(=O)Nc2nccs2)S(=O)(=O)c2c(C)nn(C)c2C)cc1 | -4.42
17 | COC(=O)C(CC(=O)O)NCc1ccco1 (stereo not drawn) | 13
18 | O=c1[nH]c(C2CCN(S(=O)(=O)c3ccc4c(c3)OCCO4)CC2)nc2c1nnn2Cc1ccccc1F | 6.14
19 | O=C(NN1CCOCC1)c1cnn2c(C(F)F)cc(-c3ccccc3)nc12 | 9.22
20 | COc1cccc2cc(C(=O)N3CCN(C45CC6CC(CC(C6)C4)C5)CC3)c(=O)oc12 | 10.2
21 | CCOc1ccccc1NC(=O)NC1(C(=O)N2CCOCC2)CCCCC1 | 15.1
22 | CCc1ccc(NC(=O)c2cccc(NC3=NC4CS(=O)(=O)CC4S3)c2)cc1 (stereo not drawn) | 15.9
23 | CC[C@H]1CC2CN3CCc4c([nH]c5ccccc45)C(C(=O)OC)(C2)C13.Cl (stereo partly drawn) | 7.18

Row | Compound | hERG current change (%, negative = inhibition) at 1uM [%]
24 | CSc1ccc(/C=N/NC(=O)c2ccc(C)c(C)c2)cc1 | 9.46
25 | Cc1ccc(C(=O)Nc2c(N)nc(SCC(=O)NCC3CCCO3)[nH]c2=O)cc1 (stereo not drawn) | 17.3
26 | O=C(c1ccco1)N1CCN(S(=O)(=O)c2ccc(Br)s2)CC1 | 6.92
27 | CCOC(=O)C(Cc1ccc(N)cc1)N1C(=O)c2ccccc2C1=O.Cl (stereo not drawn) | 13.9
28 | COc1cc(/C=N/n2c(-c3cc(C)[nH]n3)n[nH]c2=S)ccc1O | 7.87
29 | CCCCc1nnc(NC(=O)Cn2cnc3ccccc3c2=O)s1 | 7.92
30 | Fc1ccc(NC(=S)Nc2cccc3cnccc23)cc1 | 8.6
31 | COc1nc(-c2ccccc2Cl)ccc1C#N | 9.27
32 | CC1(CC(=O)N/N=C/c2cc([N+](=O)[O-])c(O)cc2O)OCCO1 | 10.3
33 | Cc1cccc(N2CCN(C(=S)Nc3ccc4nc(N5CCN(C)CC5)cc(C)c4c3)CC2C)c1 (stereo not drawn) | 5.72
34 | CN(Cc1ccccc1)C(=O)Nc1ccc(Cl)cc1 | 11
35 | Cc1csc(=O)n1CCC(=O)OCC(=O)Nc1ccc(F)c(F)c1F | 3.14
36 | CC1=C(C(=O)OCC2CCCO2)C(c2ccc(Cl)cc2)NC(=O)N1 (stereo not drawn) | 6
37 | CC(=O)c1sc(=S)n(-c2ccccc2)c1C | 13
38 | CCCN1CCN(C2CCCCC2NS(=O)(=O)c2ccc(Cl)cc2)CC1 (stereo not drawn) | -37.3
39 | COC(=O)c1ccc(NC(=O)CNC(=O)C2CCCCC2)c(C)c1 | 3.53
40 | Cc1cc(C)c(OCCCCN2CCC(C)CC2)c(Br)c1 | -24.1
41 | Cc1ccc(C)n1-c1ccc(C(=O)/C=C/N(C)C)cc1 | 13.5
42 | Cc1ccc(Sc2c(C)nn(C(=O)C3CC3)c2C)cc1 | 10.4
43 | NS(=O)(=O)c1ccc(NC(=O)CSc2cn[nH]n2)cc1 | 12.9
44 | Cc1cc(NC(=O)CSc2sc3c(O)cc(=O)[nH]c3c2C#N)ccc1Br | 6.74
45 | CCC(=O)N1CCc2cc(S(=O)(=O)CCC(=O)Nc3ccc(OC)cc3)ccc21 | 18.7
46 | OCC[C@H]1C[C@H](O)[C@@H](O)[C@]2(Cc3ccccc3CCO2)O1 | 7.08

Row | Compound | hERG current change (%, negative = inhibition) at 1uM [%]
47 | COc1ccc(CCC(=O)N2CCN(S(=O)(=O)c3cccc(Cl)c3)CC2)cc1 | 5.2
48 | O=C(CCC(=O)c1ccc(Oc2ccccc2)cc1)Nc1cccc(Cl)c1Cl | 14.2
49 | O=C(N/N=C/c1ccc2nccnc2c1)c1ccncc1 | 13.4
50 | Cc1cc(S(=O)(=O)Nc2ccc(C(=O)N3CCN(C(=O)c4ccco4)CC3)cc2)ccc1F | -16.8
51 | O=c1[nH]c2cccnc2n1Cc1ccccc1 | 5.41
52 | COC(=O)C(NC(C)=O)(Nc1ccccn1)C(F)(F)F (stereo not drawn) | 6.74
53 | CCOC(=O)c1cnc2ccc(C(=O)OC)cc2c1Nc1cccc(C(=O)O)c1.Cl | 3.08
54 | O=C(OCCCOC(=O)c1ccccc1O)c1ccccc1O | -0.173
55 | COc1ccc(Nc2nc(N3CCOCC3)nc(N3CCOCC3)n2)cc1Cl | 10.7
56 | COc1ccc2[nH]c(=O)c(CN(Cc3nnnn3Cc3ccc(F)cc3)CC3CCCO3)cc2c1 (stereo not drawn) | -11.3
57 | CCOc1ncccc1C(=O)OCC(=O)N(CC)c1ccccc1 | 0.813
58 | S=C(NCc1ccco1)N1CCN(c2nc(-c3ccccc3)cs2)CC1 | 23.6
59 | C[C@@H]1NC(=O)c2cc([N+](=O)[O-])cc(I)c2NCCCC[C@@H](C(N)=O)NC(=O)[C@H](CC(N)=O)NC1=O | 14.1
60 | CCCCOC(=O)C1=C(C)NC(=O)NC1c1ccc(OC)cc1 (stereo not drawn) | 18
61 | Cc1c(C(=O)NN)[nH]c2ccc([N+](=O)[O-])cc12 | 19.2
62 | O=C1CCCc2c1nc(-c1cccc(Cl)c1)n2O | -1.13
63 | COc1ccccc1C(=O)Nc1ccnn1C1CCN(C(=O)c2ccoc2)CC1 | -9.88
64 | COCCn1c(SCC(=O)N2CCCCC2)nc2c(c1=O)SCC2 | 15.8
65 | N#C/C(=C\c1cccc(O)c1)C(=O)Nc1ccc2c(c1)OCCO2 | 9.51
66 | O=c1c(-c2ccc(Cl)cc2)cnc2n1CCS2 | 4.44
67 | CCN(CC)c1ccc(NS(=O)(=O)c2ccc(-c3ccc(=O)[nH]n3)o2)c(C)c1 | 2.96
68 | CC1(C)S[C@@H]2[C@H](NC(=O)COc3ccccc3)C(=O)N2C1C(=O)OCc1ccccc1 (stereo partly drawn) | -5.33
69 | CCOC(=O)N1CCN(C(=O)CN(C)S(=O)(=O)c2ccc3c(c2)C(C)(C)C(=O)N3C)CC1 | 12.7

Row | Compound | hERG current change (%, negative = inhibition) at 1uM [%]
70 | COC(=O)C1=C(Nc2ccc(C)cc2)C=C(C)C(C(=O)OC)C1c1ccc(OC)cc1 (stereo not drawn) | 16.9
71 | CC(=O)N(C)c1nnc(-c2cnccn2)s1 | 12.1
72 | C=CCNC(=S)Nc1ccc(Br)cc1F | 7.48
73 | O=Cc1cn(CC(O)Cn2cc(C=O)c3ccccc32)c2ccccc12 | 8.31
74 | COc1ccc(N(C(=O)CNC(=O)c2ccco2)C(C(=O)NC2CCCCC2)c2ccncc2)cc1 (stereo not drawn) | 16.5
75 | CC1Cc2ccccc2N1C(=O)CN(C)CC(=O)Nc1ccc(F)cc1 (stereo not drawn) | -3.44
76 | CC(C)OC(=O)c1cc2ccccc2oc1=O | 12.3
77 | COc1cccc(-c2cc(C(=O)NCc3ccc(Cl)cc3)no2)c1 | 8.67
78 | COc1ccc(N2CCN(C(=O)CNC(=O)c3ccc(C(C)(C)C)cc3)CC2)cc1 | 8.22
79 | Cc1cccc(CNC(=O)C2CCCN(c3nn4c(=O)cc(C)nc4s3)C2)c1 (stereo not drawn) | 15.5
80 | O=C(COC(=O)c1cccnc1Cl)c1ccccc1 | 7.98
81 | O=C1CCCC2=C1C(c1ccsc1)CC(=O)N2c1ccccc1F (stereo not drawn) | 12.6
82 | Cc1ccc(N2CC(C(=O)NCc3ccco3)CC2=O)cc1Cl (stereo not drawn) | 12.9
83 | O=C(CSc1ccc2nnc(-c3ccc(Cl)cc3)n2n1)N1CCCc2ccccc21 | 3.3
84 | c1ccc2c3c([nH]c2c1)-c1[nH]ncc1CC3 | 13.4
85 | COc1ccc(C(=O)NCC(=O)OCC(=O)N2CCc3ccccc32)cc1 | 7.08
86 | COc1cccc(-c2nc(CS(=O)CC(=O)NC3CCCC3)c(C)o2)c1 (stereo not drawn) | 12.2
87 | Cc1cccc(-c2nnc(NC(=O)c3ccc(Cl)cc3)o2)c1 | -0.441
88 | CC1CCN(S(=O)(=O)c2ccc3c(c2)N(CC(=O)NCCCN2CCCC(C)C2)C(=O)CS3)CC1 (stereo not drawn) | 11.9
89 | Cn1nnnc1SCC(=O)c1c(N)n(C2CC2)c(=O)[nH]c1=O | 26.4
90 | Cc1ccccc1C(=O)NC1CCCCCCC1 | 11.3
